Laboratory results: PubChem BioAssay AID2147 (National Center for Advancing Translational Sciences (NCATS), 2009)
About 3,600 (1.6%) of roughly 230,000 compounds were called active. The inconclusive results got no clear call from the source; some entries with a clear call stand among them for comparison. Calls follow the shape of the dose curve; as a rule, active = well fitted inhibition curve with a large enough effect (not every such curve was filed as active); inconclusive = small, poorly fitted or top-dose-only effect, or another doubt; inactive = no such curve, though single readings can be large or run the other way. Potencies of inconclusive entries are doubtful fits and often do not repeat.

Molecular target: Lysine-specific demethylase 4E (Homo sapiens) (UniProt B2RXH2)
Assay: qHTS Assay for Inhibitors of Human Jumonji Domain Containing 2E (JMJD2E)
Settings: JMJD2E catalytic domain, FDH-coupled NADH fluorescence (FDH is formaldehyde dehydrogenase); series mostly up to 57.1 µM; activity change, negative = inhibition: at the top concentration
Also: nearly all actives have a fitted effect of over 50% in size.
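For activity change, negative = inhibition in this document: 0% = wells with enzyme and -100% = buffer wells without enzyme.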
Potency is read from the fitted curve at half-maximal effect; tags tell the direction and shape of the fitted curve.

UniProt B2RXH2, sequence (B2RXH2 whole entry, looked up, the tested form may be a part): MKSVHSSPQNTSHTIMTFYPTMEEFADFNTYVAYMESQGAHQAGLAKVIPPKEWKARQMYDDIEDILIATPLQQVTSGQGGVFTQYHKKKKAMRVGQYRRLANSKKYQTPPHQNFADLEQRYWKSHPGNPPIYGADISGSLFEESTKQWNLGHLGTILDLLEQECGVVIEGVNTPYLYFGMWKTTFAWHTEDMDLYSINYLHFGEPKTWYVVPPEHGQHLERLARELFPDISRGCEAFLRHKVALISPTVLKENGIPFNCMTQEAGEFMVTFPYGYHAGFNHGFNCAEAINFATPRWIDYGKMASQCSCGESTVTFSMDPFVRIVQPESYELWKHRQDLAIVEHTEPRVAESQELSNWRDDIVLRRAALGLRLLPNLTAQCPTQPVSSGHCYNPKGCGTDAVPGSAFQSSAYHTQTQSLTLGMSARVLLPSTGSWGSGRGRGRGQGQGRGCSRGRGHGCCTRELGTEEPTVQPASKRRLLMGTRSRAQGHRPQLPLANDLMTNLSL

SMILES | Potency | activity change, negative = inhibition
CCOC(=O)c1[nH]c2ccc(C)cc2c1N=CN(CC)CC | inconclusive: 28.2 µM [inhibitor, single point] | 
Cc1cc(C(=O)OCC(=O)N2CCOCC2)c2ccccc2n1 | inconclusive: 39.8 µM [inhibitor, single point] | 
CC(=O)OC[C@H]1O[C@@H](Sc2cccc3cccnc23)[C@H](OC(C)=O)[C@@H](OC(C)=O)[C@@H]1OC(C)=O | inconclusive: 28.2 µM [inhibitor, partial curve] | 
CCOCCCn1c(SCC(=O)NCc2ccco2)nc2c(sc3ccccc32)c1=O | inconclusive: 28.2 µM [inhibitor, partial curve] | 
Cc1ccc2[nH]c(C)c(/C=N/Nc3nc4ccccc4s3)c2c1 |  | inactive: -10.4%
CCOC(=O)CSc1nc(C)c2cc(C)c(C)cc2n1 | inconclusive: 39.8 µM [inhibitor, single point] | 
COc1cccc(/C=N/NC(=O)CC2C(=O)NN=C2C)c1OC (stereo not given) | inconclusive: 28.2 µM [inhibitor, partial curve] | 
Cc1c(CCOC(=O)C23CC4(C)CC(C)(CC(C)(C4)C2)C3)sc[n+]1CC(=O)c1ccccc1 |  | inactive: -2.56%
COc1ccc(C(=O)CSc2nnc3n2CCCN3C(=O)Nc2ccccc2)cc1 |  | inactive: 6.12%
CCOC(=O)N1CCN(C(=O)Cc2c(C(=O)O)n(C)c3ccccc23)CC1 | inconclusive: 10 µM [inhibitor, partial curve] | 
COc1ccc(/C=C2\SC(=O)N(CC(=O)Nc3cccnc3)C2=O)cc1OC |  | inactive: -6.16%
COc1cccc(CN2CCNC(=O)C2CC(=O)NC2Cc3ccccc3C2)c1 (stereo not given) | inconclusive: 31.6 µM [inhibitor, single point] | 
O=S(=O)(c1ccccc1)c1cnc(-c2ccccc2)nc1N1CCCCC1 | inconclusive: 35.5 µM [inhibitor, single point] | 
O=C(c1cc2ccccc2o1)N1CCN=C1SCc1cccnc1 |  | inactive: 5.59%
Cn1c(/C=N/n2cnnc2)nc2ccccc21 | inconclusive: 31.6 µM [inhibitor, partial curve] | 
COc1cc(C(=O)NCC(=O)OCn2nnc3ccccc3c2=O)cc(OC)c1OC |  | inactive: 27.1%
CN(C)C(=O)c1ccc2c(c1[N+](=O)[O-])C(=O)c1ccccc1C2=O |  | inactive: 8.38%
Cc1sc(NC(=O)C2CCCO2)c(C#N)c1C (stereo not given) | inconclusive: 35.5 µM [inhibitor, single point] | 
COc1ccc(-c2nnc3c4ccccc4c(C)nn23)cc1 |  | inactive: 1.35%
COc1ccc(NC(=S)N/C(=N/CS(=O)(=O)c2ccccc2)c2ccccc2)cc1 |  | inactive: -0.945%
O=C(C1CC1)N1CCN(c2ccc([N+](=O)[O-])cc2-n2cccc2)CC1 |  | inactive: 6.96%
COc1cc(C(C[N+](=O)[O-])c2c(C)[nH]c3ccccc23)ccc1O (stereo not given) |  | inactive: 7.92%
Cc1ccc(CN2CCN(Cc3ccncc3)CC2CCO)o1 (stereo not given) | inconclusive: 25.1 µM [inhibitor, single point] | 

SMILES | Potency | activity change, negative = inhibition
CCNC(=O)COC(=O)c1cc(-c2ccc(OC)cc2)nc2ccccc12 | inconclusive: 31.6 µM [inhibitor, partial curve] | 
COc1cccc(NC(=O)Cn2c(CCC(=O)O)ccc2-c2ccccc2)c1 | inconclusive: 31.6 µM [inhibitor, single point] | 
Cc1ccc(/C=C2/NC(=O)N(Cc3ccccc3F)C2=O)s1 | inconclusive: 39.8 µM [inhibitor, single point] | 
COC(=O)[C@@H](NC(=O)O[C@H]1C(=O)c2cc(OC)ccc2O[C@@H]1c1ccc(OC)c(Br)c1)C(C)C | inconclusive: 28.2 µM [inhibitor, single point] | 
O=C(O)c1ccc(-c2nc(-c3ccccc3)c(-c3cccs3)[nH]2)cc1 | inconclusive: 22.4 µM [inhibitor, partial curve] | 
Cc1cnc(C(=O)Nc2ccc(F)cc2)cn1 |  | inactive: -1.11%
CCOc1cc2c(cc1/C=C(/C#N)c1ccc(C(=O)O)cc1)OCO2 |  | inactive: -20.4%
CCN(CC)S(=O)(=O)c1ccc(N2CCCC2)c(NS(=O)(=O)c2ccc([N+](=O)[O-])cc2)c1 |  | inactive: -1.72%
CC1=NN(C(C#N)c2ccccc2)C(c2ccccc2)C1 (stereo not given) | inconclusive: 5.01 µM [inhibitor, single point] | 
Cc1ccc(CNc2ccc(N3C(=O)CCCC3=O)cc2[N+](=O)[O-])cc1 | inconclusive: 39.8 µM [inhibitor, single point] | 
NC(=O)C1(N2CCCCC2)CCN(Cc2nc3ccccc3c(=O)[nH]2)CC1 | inconclusive: 39.8 µM [inhibitor, single point] | 
COc1ccccc1CC(Cc1nc2ccccc2[nH]1)c1nc2ccccc2[nH]1 (stereo not given) | inactive | 
CCOc1cc2c3c(c1)C1(C(=O)N3C(C)(C)C=C2C)C(C#N)=C(N)Oc2cc(O)ccc21 (stereo not given) | inconclusive: 39.8 µM [inhibitor, single point] | 
CCN1C(=O)c2cccc3c(S(=O)(=O)NCC4CCCO4)ccc1c23 (stereo not given) | inconclusive: 31.6 µM [inhibitor, partial curve] | 
COCCNC(=O)C(c1ccc(C)o1)N(C(=O)c1snc(C(N)=O)c1N)c1ccc(C)c(C)c1 (stereo not given) | inconclusive: 28.2 µM [inhibitor, single point] | 
COCCn1nnnc1C(c1ccccc1)N1CCN(c2ccccc2)CC1 (stereo not given) | inconclusive: 35.5 µM [inhibitor, single point] | 
CCN(CC)CCCN1C=C2C(=O)C(C)(OC(=O)CCc3ccccc3)C(=O)C=C2C=C1c1ccc(C#N)cc1 (stereo not given) | inconclusive: 28.2 µM [inhibitor, partial curve] | 
O=C(O)c1c(-c2ccc(Cl)cc2)cn2ccccc12 | inconclusive: 28.2 µM [inhibitor, partial curve] | 
COc1ccc(NC(=O)C(Cl)=C(Cl)Cl)cn1 |  | inactive: -2.09%
COC(=O)CC1Oc2cc3oc4c5ccccc5oc(=O)c4c3cc2O1 (stereo not given) | inconclusive: 7.94 µM [inhibitor, partial curve] | 
Oc1cc2c(cc1O)[C@H](c1ccccc1)CNCC2 | active: 14.1 µM | 
C=CCn1c(SCC(=O)c2ccc(Cl)cc2)nnc1-c1ccc2c(c1)OCO2 |  | inactive: -4.29%
